# Measured values published in the supplement of paper PMC8728848.
# Some of the results follow.
# B1: FimA-N1 (Actinomyces oris) (protein)
# chain: MHHHHHHSSGVDLGTENLYFQSNATETPNYGNIKTDATGSLVIHKHLTGGGKDIGTPTGTAQNADDKGPAVEGVVFTAYPITDINLKDPAGWDTISNLSRTGVPDSACANPAAPTLGAHQFGTPKVSPATTKEGLATITEMPVQAYLVCETTTPGDIVQKAKPFVVTIPHPNTAAGADGQWIYDVNVYPKNEAIDVDKTIQAQK
# How the values were obtained:
# Experiment in all cases: glycan array binding signal (z-score within array); higher = stronger binding
# Details in all cases: glycan notation: IUPAC condensed, linker removed
# Fuc(a1-2)Gal(b1-4)Glc6S = target: Fuc(a1-2)Gal(b1-4)Glc6S
# Method in brief: (§1)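 Arrays were curated from the Consortium for Functional Glycomics database, 3228 in total, and kept only where the protein sequence was available. Binding is expressed as a within-array Z-score. This score was averaged across arrays of the same protein sequence at different concentrations or buffers and across linkers, and negative values can be read as non-binding.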
# Fuc(a1-2)Gal(b1-4)GlcNAc = target: Fuc(a1-2)Gal(b1-4)GlcNAc
# Method in brief: as §1
# [1] = target: Fuc(a1-2)Gal(b1-4)GlcNAc(b1-2)Man
# Method in brief: as §1
# [2] = target: Fuc(a1-2)Gal(b1-4)GlcNAc(b1-2)Man(a1-3)[Fuc(a1-2)Gal(b1-4)GlcNAc(b1-2)Man(a1-6)]Man(b1-4)GlcNAc(b1-4)GlcNAc
# Method in brief: as §1
# [3] = target: Fuc(a1-2)Gal(b1-4)GlcNAc(b1-2)Man(a1-3)[Fuc(a1-2)Gal(b1-4)GlcNAc(b1-2)Man(a1-6)]Man(b1-4)GlcNAc(b1-4)[Fuc(a1-6)]GlcNAc
# Method in brief: as §1
# [4] = target: Fuc(a1-2)Gal(b1-4)GlcNAc(b1-2)[Fuc(a1-2)Gal(b1-4)GlcNAc(b1-4)]Man(a1-3)[Fuc(a1-2)Gal(b1-4)GlcNAc(b1-2)Man(a1-6)]Man(b1-4)GlcNAc(b1-4)GlcNAc
# Method in brief: as §1
# [5] = target: Fuc(a1-2)Gal(b1-4)GlcNAc(b1-3)Gal(b1-4)GlcNAc
# Method in brief: as §1
# [6] = target: Fuc(a1-2)Gal(b1-4)GlcNAc(b1-3)Gal(b1-4)GlcNAc(b1-2)Man(a1-3)[Fuc(a1-2)Gal(b1-4)GlcNAc(b1-3)Gal(b1-4)GlcNAc(b1-2)Man(a1-6)]Man(b1-4)GlcNAc(b1-4)GlcNAc
# Method in brief: as §1
# [7] = target: Fuc(a1-2)Gal(b1-4)GlcNAc(b1-3)Gal(b1-4)GlcNAc(b1-3)Gal(b1-4)GlcNAc
# Method in brief: as §1
# [8] = target: Fuc(a1-2)Gal(b1-4)GlcNAc(b1-3)GalNAc
# Method in brief: as §1
# [9] = target: Fuc(a1-2)Gal(b1-4)GlcNAc(b1-3)[Fuc(a1-2)Gal(b1-4)GlcNAc(b1-6)]GalNAc
# Method in brief: as §1
# [10] = target: Fuc(a1-2)Gal(b1-4)GlcNAc(b1-3)[Fuc(a1-3)[Gal(b1-4)]GlcNAc(b1-6)]Gal(b1-4)Glc
# Method in brief: as §1
# [11] = target: Fuc(a1-2)Gal(b1-4)GlcNAc(b1-6)GalNAc
# Method in brief: as §1
# [12] = target: Fuc(a1-2)Gal(b1-4)GlcNAc6S
# Method in brief: as §1
# [13] = target: Fuc(a1-2)Gal(b1-4)[Fuc(a1-3)]GlcNAc
# Method in brief: as §1
# [14] = target: Fuc(a1-2)Gal(b1-4)[Fuc(a1-3)]GlcNAc(b1-2)Man(a1-3)[Fuc(a1-2)Gal(b1-4)[Fuc(a1-3)]GlcNAc(b1-2)Man(a1-6)]Man(b1-4)GlcNAc(b1-4)[Fuc(a1-6)]GlcNAc
# Method in brief: as §1
# [15] = target: Fuc(a1-2)Gal(b1-4)[Fuc(a1-3)]GlcNAc(b1-2)[Fuc(a1-2)Gal(b1-4)[Fuc(a1-3)]GlcNAc(b1-4)]Man(a1-3)[Fuc(a1-2)Gal(b1-4)[Fuc(a1-3)]GlcNAc(b1-2)Man(a1-6)]Man(b1-4)GlcNAc(b1-4)GlcNAc
# Method in brief: as §1
# [16] = target: Fuc(a1-2)Gal(b1-4)[Fuc(a1-3)]GlcNAc(b1-3)Gal(b1-4)[Fuc(a1-3)]GlcNAc
# Method in brief: as §1
# [17] = target: Fuc(a1-2)Gal(b1-4)[Fuc(a1-3)]GlcNAc(b1-3)Gal(b1-4)[Fuc(a1-3)]GlcNAc(b1-3)Gal(b1-4)[Fuc(a1-3)]GlcNAc
# Method in brief: as §1
# [18] = target: Fuc(a1-2)Gal(b1-4)[Fuc(a1-3)]GlcNAc(b1-3)GalNAc
# Method in brief: as §1
# [19] = target: Fuc(a1-2)Gal(b1-4)[Fuc(a1-3)]GlcNAc(b1-3)[Neu5Ac(a2-6)Gal(b1-4)GlcNAc(b1-6)]Gal(b1-4)Glc
# Method in brief: as §1
# [20] = target: Fuc(a1-2)Gal3S(b1-4)GlcNAc
# Method in brief: as §1
# [21] = target: Fuc(a1-2)Gal6S(b1-3)GlcNAc
# Method in brief: as §1
binder,measurement,setting,value
B1,glycan array binding signal (z-score),Fuc(a1-2)Gal(b1-4)Glc6S,-0.379
same,glycan array binding signal (z-score),Fuc(a1-2)Gal(b1-4)GlcNAc,-0.16
same,glycan array binding signal (z-score),[1],0.065
same,glycan array binding signal (z-score),[2],0.742
same,glycan array binding signal (z-score),[3],-0.24
same,glycan array binding signal (z-score),[4],-0.069
same,glycan array binding signal (z-score),[5],-0.319
same,glycan array binding signal (z-score),[6],-0.175
same,glycan array binding signal (z-score),[7],-0.348
same,glycan array binding signal (z-score),[8],0.044
same,glycan array binding signal (z-score),[9],-0.462
same,glycan array binding signal (z-score),[10],-0.014
same,glycan array binding signal (z-score),[11],-0.096
same,glycan array binding signal (z-score),[12],-0.052
same,glycan array binding signal (z-score),[13],0.461
same,glycan array binding signal (z-score),[14],0.219
same,glycan array binding signal (z-score),[15],0.284
same,glycan array binding signal (z-score),[16],-0.314
same,glycan array binding signal (z-score),[17],-0.302
same,glycan array binding signal (z-score),[18],-0.422
same,glycan array binding signal (z-score),[19],0.028
same,glycan array binding signal (z-score),[20],0.009
same,glycan array binding signal (z-score),[21],-0.104
